Assay results: the supplement of paper PMC3334620
Whole data set: some 33,000 sequences, median “E-score (-0.5 to 0.5)” near -0.016, cut for the highest 2% near 0.31. This is one part of the list.

These sequences were tested against Cst6 (UniProt P40535) (assay: PBM E-score (8-mer binding enrichment) (E-score (-0.5 to 0.5)); higher = stronger / more preferred TF binding; most listed sequences are background and not binding sites). Settings: protein concentration: 200 nM; construct: GST-DNA-binding domain.
Method in brief: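 Yeast transcription factors carrying a GST tag, as full-length proteins or DNA-binding domains, were produced by PURExpress in vitro transcription/translation. About 100-200 nM protein was applied to universal all-10-mer Agilent arrays, double-stranded by primer extension on fresh or once-stripped slides. Bound protein was detected with fluorescent anti-GST, and scans were normalised with masliner. The Universal PBM Analysis Suite gave each ungapped eight-base word, pooled with its reverse complement, an E-score, a modified Wilcoxon-Mann-Whitney statistic.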

Sequence	PBM E-score
AAATCCCA	-0.0398
CCAACCGC	-0.097
GGTGGCTA	-0.0622
TCCGCCCA	-0.36
TAGGTATA	0.0331
AAATATGC	0.12
GAATGGAC	-0.0991
CCGTATTA	0.2
GTTGCAGA	0.0297
TTCTACAA	0.0764
TCCCTTAA	-0.125
AAGATTAT	0.149
CCGGGTCC	-0.363
TAATACAA	0.19
GATTATTA	0.14
AATTTAGA	0.128
AAGTACTC	-0.103
CAATAGTA	0.0411
AAATCCAG	-0.0456
GTTCGTAA	0.155
GTTGTCCA	-0.13
AGAATGAT	0.231

Sequence	PBM E-score
CTTTAGTA	0.0571
AGCTGTGA	0.135
CGGCGATC	0.15
CCGGCAGA	-0.282
GCGCCGGA	-0.109
GCTTAACA	-0.0462
CGGCCCCA	-0.208
ATCGAGCC	-0.0393
TCGGTGCA	-0.26
CTCACATA	0.0251
TAGTGGAA	-0.0995
TGAAGGCA	0.0356
CATGCATA	0.143
AGATTAGC	-0.0454
GTGCAGAA	0.0789
AGAGACAG	-0.168
ATAGGGTA	-0.142
GAGTCCTA	-0.316
AAGGTCAA	0.00615
AACTCCAC	-0.0479
GCAGAGCA	-0.0965
CTTGCGAC	-0.211

Sequence	PBM E-score
ATTTGGAA	0.109
TAATTCCA	0.2
CTAGGATC	-0.259
GACCAGGC	-0.182
ACGCTTAT	0.0731
CAATGGTC	0.00422
CAAATCCG	0.00808
AAGGGAAG	-0.0509
CTTGGTCC	-0.159
CACAACAG	-0.225
AGAATACG	0.0347
GAACACAC	-0.0869
CAGCAGGA	-0.0613
AACCGGGA	-0.16
AAAGGTTC	-0.125
TCAGTGCA	-0.111
ATCCGGGG	-0.182
AATTAACA	0.246
TGGCGACA	-0.0294
TAAAACTA	0.191
AGAAGTTC	-0.026
CTATACGC	-0.0306

Sequence	PBM E-score
CTGCTTCC	-0.297
GTCGAAAA	0.198
ATAATGGC	0.151
AATGCTCC	-0.269
CAACCTAG	-0.178
AGCCTGGG	-0.268
CAGTCCCA	-0.301
AAAGCATT	0.0425
CCATGCAA	0.166
GCGACTAC	-0.152
ACAACTCC	0.0467
ACTGGCTG	-0.19
GGGGGACC	-0.335
CGATCTAA	0.0176
AACCCAGT	-0.0547
AAGGTGTA	-0.131
CACTGCCA	0.153
AATCCAAG	0.00526
TCCGGACA	-0.147
TACCTATA	-0.0286
